Test results reported in the BET-seq Pho4 binding data (Le et al. 2018).
This is one part of the list. Values were computed here from the reads of four pooled replicates and scatter widely.

Biological target: T1, Pho4 (S. cerevisiae) (UniProt P07270)
T1 sequence: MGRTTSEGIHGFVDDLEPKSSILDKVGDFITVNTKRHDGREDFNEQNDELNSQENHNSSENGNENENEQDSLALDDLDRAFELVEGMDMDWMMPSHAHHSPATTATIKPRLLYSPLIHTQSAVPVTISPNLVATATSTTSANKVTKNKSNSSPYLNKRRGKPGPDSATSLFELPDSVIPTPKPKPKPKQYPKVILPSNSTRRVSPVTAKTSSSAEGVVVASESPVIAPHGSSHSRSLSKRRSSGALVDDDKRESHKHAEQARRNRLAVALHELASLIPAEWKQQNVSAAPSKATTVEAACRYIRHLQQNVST
Test: relative binding free energy (BET-seq); higher = weaker binding
Details: reference: library average

Row | Sequence | relative binding free energy
1 | TTAGACACGTGTAAGT | 0.11 kcal/mol
2 | GGGTGCACGTGATGCA | 0.12 kcal/mol
3 | TCGTGCACGTGGGAAG | -0.12 kcal/mol
4 | GGGTACACGTGTATTG | 0 kcal/mol
5 | TTTATCACGTGAACTG | 0.34 kcal/mol
6 | TTCATCACGTGAGTAG | 0.24 kcal/mol
7 | TGGTACACGTGGGCAT | -0.2 kcal/mol
8 | CTGGTCACGTGTTATG | 0.01 kcal/mol
9 | AAAGTCACGTGTGCTT | 0.08 kcal/mol
10 | CGGGTCACGTGAAGTG | 0.34 kcal/mol
11 | TTAGGCACGTGTGCCT | -0.04 kcal/mol
12 | GCGGGCACGTGATGTT | 0.18 kcal/mol
13 | AAACGCACGTGGTTTG | -0.03 kcal/mol
14 | TGTTTCACGTGGGAAT | 0.26 kcal/mol
15 | AGGCTCACGTGTCGTG | 0.19 kcal/mol
16 | ATTGACACGTGTAATT | 0.22 kcal/mol
17 | TAGAACACGTGGATGT | -0.02 kcal/mol
18 | TTGGTCACGTGATGGG | 0.31 kcal/mol
19 | GTCTTCACGTGTGTGG | 0.32 kcal/mol
20 | TTTTCCACGTGTGGTG | 0.1 kcal/mol
21 | TGTGCCACGTGGCGGA | -0.17 kcal/mol
22 | AGGCACACGTGGGTGA | -0.22 kcal/mol
23 | GCAGGCACGTGTGCGT | -0.12 kcal/mol

Row | Sequence | relative binding free energy
24 | TTTCACACGTGGGAGG | -0.05 kcal/mol
25 | TGGTACACGTGTGATA | 0.3 kcal/mol
26 | TGTGTCACGTGTGAGA | 0.22 kcal/mol
27 | GTGGTCACGTGCAGTG | 0.23 kcal/mol
28 | TGAGGCACGTGGATTA | -0.1 kcal/mol
29 | AGATGCACGTGGAGTG | -0.02 kcal/mol
30 | TGTAACACGTGTGATG | -0.05 kcal/mol
31 | GTTAGCACGTGTTGCA | -0.03 kcal/mol
32 | GTTTTCACGTGCGCGG | 0.27 kcal/mol
33 | AGGGTCACGTGTGACA | 0.15 kcal/mol
34 | TGCTGCACGTGTAGTA | 0.01 kcal/mol
35 | GGGGACACGTGGGAGC | -0.06 kcal/mol
36 | CTTTTCACGTGATTCG | 0.24 kcal/mol
37 | CGGGTCACGTGAATAT | 0.24 kcal/mol
38 | CCGTTCACGTGGGGGA | 0.22 kcal/mol
39 | TGTCTCACGTGCATGT | 0.06 kcal/mol
40 | TCAATCACGTGTTTTG | 0.13 kcal/mol
41 | GATTACACGTGGTAAT | 0.11 kcal/mol
42 | AGGCTCACGTGTGTGT | 0.19 kcal/mol
43 | TTCGACACGTGCTGGT | 0.12 kcal/mol
44 | TTGTTCACGTGGGGGT | 0.13 kcal/mol
45 | TTGACCACGTGTGTTT | -0.07 kcal/mol
46 | TTCCTCACGTGTTTTT | 0.19 kcal/mol

Row | Sequence | relative binding free energy
47 | ATTGGCACGTGCCGCG | -0.17 kcal/mol
48 | CGGGGCACGTGGGATT | -0.2 kcal/mol
49 | AGTTACACGTGGATTT | 0.03 kcal/mol
50 | TGCTTCACGTGCTGGA | 0.24 kcal/mol
51 | TTTGCCACGTGAAGTA | 0.3 kcal/mol
52 | GTTTGCACGTGTGGCG | 0.13 kcal/mol
53 | TTACTCACGTGGGGGC | 0.19 kcal/mol
54 | CCGGTCACGTGGGGCG | -0.04 kcal/mol
55 | GGGATCACGTGGCTTG | 0.11 kcal/mol
56 | TAATGCACGTGAGAGA | 0.22 kcal/mol
57 | CGTGACACGTGGGGAT | -0.13 kcal/mol
58 | TTTATCACGTGGGAGG | 0.17 kcal/mol
59 | GTGGTCACGTGCTATT | 0.05 kcal/mol
60 | TGTTGCACGTGTTACG | 0.14 kcal/mol
61 | GGGGGCACGTGGGGCG | -0.15 kcal/mol
62 | TGTATCACGTGAGGAG | 0.41 kcal/mol
63 | GATTGCACGTGAGTGA | 0.29 kcal/mol
64 | TGTTGCACGTGTGCCT | -0.04 kcal/mol
65 | TCTGACACGTGTGTAT | 0.09 kcal/mol
66 | CGTGGCACGTGTGACG | 0.09 kcal/mol
67 | GTGTTCACGTGGGAGT | 0.24 kcal/mol
68 | GGGATCACGTGTTTAA | 0.15 kcal/mol
69 | CTGCTCACGTGTGGGG | 0.19 kcal/mol

Row | Sequence | relative binding free energy
70 | GTTTTCACGTGAGGTG | 0.53 kcal/mol
71 | GGGGTCACGTGCGAAG | 0.06 kcal/mol
72 | TAGATCACGTGGAGTA | 0.06 kcal/mol
73 | CATGTCACGTGCGGGG | -0.02 kcal/mol
74 | CGTGGCACGTGTCGTG | -0.1 kcal/mol
75 | GTATACACGTGTGGGC | -0.01 kcal/mol
76 | GGAGACACGTGAATGG | 0.35 kcal/mol
77 | ATTGGCACGTGGTCGG | -0.21 kcal/mol
78 | TGTGCCACGTGGTGTT | -0.2 kcal/mol
79 | TCTGACACGTGTGTGT | 0.05 kcal/mol
80 | GGTGTCACGTGATCTA | 0.35 kcal/mol
81 | TTAGTCACGTGTGAAG | 0.05 kcal/mol
82 | TGATTCACGTGCGTTG | 0.11 kcal/mol
83 | AGGGTCACGTGTGCTG | 0.16 kcal/mol
84 | TGTGTCACGTGTAGTC | 0.19 kcal/mol
85 | TAATACACGTGGTGTG | -0.09 kcal/mol
86 | ACGTGCACGTGATTGT | -0.04 kcal/mol
87 | ATTGCCACGTGAAGTG | 0.05 kcal/mol
88 | GTTTTCACGTGCTGAT | 0.28 kcal/mol
89 | GGGTTCACGTGGGACA | 0.17 kcal/mol
90 | AAATTCACGTGGGGTA | 0.13 kcal/mol
91 | AAGGTCACGTGGTAGT | 0.02 kcal/mol
92 | CGCTGCACGTGGGCGT | -0.23 kcal/mol

Row | Sequence | relative binding free energy
93 | GCGGGCACGTGGTGTA | -0.03 kcal/mol
94 | ATGTCCACGTGGGGGC | -0.18 kcal/mol
95 | TCGATCACGTGGGGAA | 0.05 kcal/mol
96 | AGGTACACGTGGTGAG | 0.08 kcal/mol
97 | ATCTGCACGTGTCGGT | 0 kcal/mol
98 | GTGAACACGTGCAAGT | 0.22 kcal/mol
99 | TTTGGCACGTGGTCAG | -0.13 kcal/mol
100 | TGTGCCACGTGGACGG | 0 kcal/mol
101 | AATGGCACGTGATTCG | 0.03 kcal/mol
102 | GAAGGCACGTGGGAAA | 0.05 kcal/mol
103 | AGGCACACGTGTTTTT | 0.08 kcal/mol
104 | TTAAGCACGTGGGTGC | -0.18 kcal/mol
105 | CGTGGCACGTGTCATG | -0.22 kcal/mol
106 | ATTGTCACGTGTATCA | -0.02 kcal/mol
107 | TGATTCACGTGGTTTC | 0.25 kcal/mol
108 | CTTTACACGTGCGTTT | 0.01 kcal/mol
109 | GGACGCACGTGTTGTG | -0.02 kcal/mol
110 | TATTGCACGTGGTTGG | 0 kcal/mol
111 | AAAGCCACGTGTGTGT | -0.02 kcal/mol
112 | TTAAGCACGTGCGAGG | -0.17 kcal/mol
113 | TGATGCACGTGATTTT | 0.17 kcal/mol
114 | TTAATCACGTGAGTGA | 0.27 kcal/mol
115 | GTATACACGTGAGTAA | 0.31 kcal/mol
